Reference: the supplement of paper PMC12217912
The other results are listed elsewhere or left out. The full chains were built here from the parent and the listed change. Values near 0.05 are background.

B1: TEV protease; numbered along this chain (parent)
chain: MGESLFKGPRDYNPISSSICHLTNESDGHTTSLYGIGFGPFIITNKHLFRRNNGTLVVQSLHGVFKVKDTTTLQQHLVDGRDMIIIRMPKDFPPFPQKLKFREPQREERICLVTTNFQTKSMSSMVSDTSCTFPSGDGIFWKHWIQTKDGQCGSPLVSTRDGFIVGIHSASNFTNTNNYFTSVPKNFMELLTNQEAQQWVSGWRLNADSVLWGGHKVFMVKPEEPFQPVKEATQL

Variants of: B1
Test: raw area under fraction-flipped curve 0-4 h after induction (AUC4h, not background-subtracted), DNA-recorder readout of cleavage of the substrate (dimensionless); higher = more cleavage of the substrate by the protease variant
Conditions: temperature: 34 °C; time window: 0-4 h after rhamnose induction
Protocol: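 In vivo DNA recorder in E. coli TOP10(DE3) ΔrhaA at 34 °C. Each TEVp single-site mutant (parent TEVp 0) is paired with a single-site variant of the 7-mer TEVs (canonical ENLYFQ|S). The substrate sits between flexible linkers in a Bxb1-sfGFP-TEVs-SsrA fusion, so cleavage stabilises Bxb1 and speeds flipping of a recombination array, read by NGS. The value is the raw area under the fraction-flipped curve over 0-4 h after rhamnose induction (AUC4h), with ≥20 reads per time point. It is not background-subtracted; inactive controls average about 0.047.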
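Further: Bxb1 expression induced with 0.2% (w/v) L-rhamnose at OD600 near 0.5, cultures sampled hourly, flipped fraction per protease–substrate barcode pair counted by paired-end Illumina sequencing.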

Variant	area with substrate ENAYFQS	area with substrate ENCYFQS	area with substrate ENDYFQS	area with substrate ENEYFQS	area with substrate ENFYFQS	area with substrate ENGYFQS	area with substrate ENHYFQS	area with substrate ENIYFQS	area with substrate ENKYFQS	area with substrate ENMYFQS	area with substrate ENNYFQS	area with substrate ENPYFQS	area with substrate ENQYFQS	area with substrate ENRYFQS	area with substrate ENSYFQS	area with substrate ENTYFQS	area with substrate ENVYFQS	area with substrate ENYYFQS	area with substrate ENWYFQS
MGESLFKGPRDYNPISSSICHLTNESDGHTTSLYGIGFGPVIITNKHLFRRNNGTLVVQSLHGVFKVKDTTTLQQHLVDGRDMIIIRMPKDFPPFPQKLKFREPQREERICLVTTNFQTKSMSSMVSDTSCTFPSGDGIFWKHWIQTKDGQCGSPLVSTRDGFIVGIHSASNFTNTNNYFTSVPKNFMELLTNQEAQQWVSGWRLNADSVLWGGHKVFMVKPEEPFQPVKEATQL [F41V]	0.0749	0.0633	0.0488	0.0624	0.0548	0.0598	0.0573	0.0913	0.0583	0.0745	0.0463	0.0536	0.0566	0.0632	0.0598	0.0575	0.0682	0.047	–
MGESLFKGPRDYNPISSSICHLTNESDGHGTSLYGIGFGPFIITNKHLFRRNNGTLVVQSLHGVFKVKDTTTLQQHLVDGRDMIIIRMPKDFPPFPQKLKFREPQREERICLVTTNFQTKSMSSMVSDTSCTFPSGDGIFWKHWIQTKDGQCGSPLVSTRDGFIVGIHSASNFTNTNNYFTSVPKNFMELLTNQEAQQWVSGWRLNADSVLWGGHKVFMVKPEEPFQPVKEATQL [T30G]	0.0547	0.0524	0.059	0.0616	0.0329	0.0624	0.0526	–	–	–	0.0274	–	0.0268	0.0458	–	0.0284	0.0581	–	–
MGESLFKGPRDYNPISSSICHLTNESDGHTTSLYGIGAGPFIITNKHLFRRNNGTLVVQSLHGVFKVKDTTTLQQHLVDGRDMIIIRMPKDFPPFPQKLKFREPQREERICLVTTNFQTKSMSSMVSDTSCTFPSGDGIFWKHWIQTKDGQCGSPLVSTRDGFIVGIHSASNFTNTNNYFTSVPKNFMELLTNQEAQQWVSGWRLNADSVLWGGHKVFMVKPEEPFQPVKEATQL [F38A]	0.0693	0.0618	–	0.0468	0.0705	–	0.0711	–	–	–	–	–	0.05	–	0.0581	0.0505	0.0349	–	–
MGESLFKGPRDYNPISSSICHLTNESDGHTTSLYGIGLGPFIITNKHLFRRNNGTLVVQSLHGVFKVKDTTTLQQHLVDGRDMIIIRMPKDFPPFPQKLKFREPQREERICLVTTNFQTKSMSSMVSDTSCTFPSGDGIFWKHWIQTKDGQCGSPLVSTRDGFIVGIHSASNFTNTNNYFTSVPKNFMELLTNQEAQQWVSGWRLNADSVLWGGHKVFMVKPEEPFQPVKEATQL [F38L]	0.0572	0.0697	0.0584	0.0558	0.0507	0.0553	0.0561	0.0786	0.0613	0.0661	0.0561	0.0562	0.0561	0.0608	0.0568	0.0839	0.0785	0.0567	–
MGESLFKGPRDYNPISSSICHLTNESDGHTTSLYGIGMGPFIITNKHLFRRNNGTLVVQSLHGVFKVKDTTTLQQHLVDGRDMIIIRMPKDFPPFPQKLKFREPQREERICLVTTNFQTKSMSSMVSDTSCTFPSGDGIFWKHWIQTKDGQCGSPLVSTRDGFIVGIHSASNFTNTNNYFTSVPKNFMELLTNQEAQQWVSGWRLNADSVLWGGHKVFMVKPEEPFQPVKEATQL [F38M]	0.052	0.0664	0.0639	0.0613	0.0556	0.0594	0.0629	–	0.069	0.0813	0.0639	–	0.0578	0.0772	0.0541	0.0556	0.0651	–	–
MGESLFKGPRDYNPISSSICHLTNESDGHTTSLYPIGFGPFIITNKHLFRRNNGTLVVQSLHGVFKVKDTTTLQQHLVDGRDMIIIRMPKDFPPFPQKLKFREPQREERICLVTTNFQTKSMSSMVSDTSCTFPSGDGIFWKHWIQTKDGQCGSPLVSTRDGFIVGIHSASNFTNTNNYFTSVPKNFMELLTNQEAQQWVSGWRLNADSVLWGGHKVFMVKPEEPFQPVKEATQL [G35P]	0.0474	0.045	–	0.0497	0.0407	–	–	–	0.0366	–	0.0494	–	–	0.0497	–	–	–	–	–
MGESLFKGPRDYNPISSSICHLTNESDGHTTSLYGLGFGPFIITNKHLFRRNNGTLVVQSLHGVFKVKDTTTLQQHLVDGRDMIIIRMPKDFPPFPQKLKFREPQREERICLVTTNFQTKSMSSMVSDTSCTFPSGDGIFWKHWIQTKDGQCGSPLVSTRDGFIVGIHSASNFTNTNNYFTSVPKNFMELLTNQEAQQWVSGWRLNADSVLWGGHKVFMVKPEEPFQPVKEATQL [I36L]	0.0496	–	0.0568	0.0737	0.0553	–	0.0562	0.112	–	–	0.0691	0.0588	0.0552	0.0719	0.0709	0.0697	0.0724	–	0.0535
MGESLFKGPRDYNPISSSICHLTNESDGHTTSLFGIGFGPFIITNKHLFRRNNGTLVVQSLHGVFKVKDTTTLQQHLVDGRDMIIIRMPKDFPPFPQKLKFREPQREERICLVTTNFQTKSMSSMVSDTSCTFPSGDGIFWKHWIQTKDGQCGSPLVSTRDGFIVGIHSASNFTNTNNYFTSVPKNFMELLTNQEAQQWVSGWRLNADSVLWGGHKVFMVKPEEPFQPVKEATQL [Y34F]	0.0547	0.0539	0.0723	0.0509	–	–	0.0588	0.094	0.0052	–	0.0584	–	0.067	0.081	0.056	0.0717	0.0802	0.0651	0.0529
MGESLFKGPRDYNPISSSICHLTNESDGHTTSLGGIGFGPFIITNKHLFRRNNGTLVVQSLHGVFKVKDTTTLQQHLVDGRDMIIIRMPKDFPPFPQKLKFREPQREERICLVTTNFQTKSMSSMVSDTSCTFPSGDGIFWKHWIQTKDGQCGSPLVSTRDGFIVGIHSASNFTNTNNYFTSVPKNFMELLTNQEAQQWVSGWRLNADSVLWGGHKVFMVKPEEPFQPVKEATQL [Y34G]	0.0105	–	0.0611	0.055	0.0561	–	0.0546	–	0.0603	0.0568	0.0386	–	0.0543	–	0.0479	–	0.0515	–	0.0533
